{
  "source": "patent US20080292704A1",
  "about": "(published 2008)",
  "binders": {"B1": {"name": "recombinant FcγRIIIa-158V ligand binding domain, 6xHis tagged (receptor)", "chain": "not shown"}},
  "target": "T1, HSA1R4 (human, UniProt P02768 25-221)",
  "T1 construct": "range 1-197; also called R4 ligand; HCH2 polymer",
  "assay": "ELISA on coated recombinant receptor (4 µg/mL), HRPO-Protein G detection",
  "data": [
    {"binder": "B1", "values": [
      {"measurement": "binding result", "result": "binds"}
    ]}
  ]
}
